Test results from PubChem BioAssay AID1030 (National Center for Advancing Translational Sciences (NCATS), 2008).
About 16,000 (7.3%) of roughly 220,000 compounds were called active. Inconclusive means that the source gave no clear call. Such entries were picked first, then a sample of the others. The call rests on the fitted dose curve; in most records, active means well fitted inhibition curve with a large enough effect (not every such curve was filed as active); inconclusive means small, poorly fitted or top-dose-only effect, or another doubt; inactive means no such curve, though single readings can be large or run the other way. Potencies beside an inconclusive call are fits to weak or partial responses and may not hold up.

molecular target: Aldehyde dehydrogenase 1A1 (Homo sapiens) (UniProt P00352); experiment: qHTS Assay for Inhibitors of Aldehyde Dehydrogenase 1 (ALDH1A1); settings: Purified ALDH1A1, NADH fluorescence, propionaldehyde substrate; series mostly up to 75.3 µM
Chain of UniProt P00352 (P00352 whole entry, looked up): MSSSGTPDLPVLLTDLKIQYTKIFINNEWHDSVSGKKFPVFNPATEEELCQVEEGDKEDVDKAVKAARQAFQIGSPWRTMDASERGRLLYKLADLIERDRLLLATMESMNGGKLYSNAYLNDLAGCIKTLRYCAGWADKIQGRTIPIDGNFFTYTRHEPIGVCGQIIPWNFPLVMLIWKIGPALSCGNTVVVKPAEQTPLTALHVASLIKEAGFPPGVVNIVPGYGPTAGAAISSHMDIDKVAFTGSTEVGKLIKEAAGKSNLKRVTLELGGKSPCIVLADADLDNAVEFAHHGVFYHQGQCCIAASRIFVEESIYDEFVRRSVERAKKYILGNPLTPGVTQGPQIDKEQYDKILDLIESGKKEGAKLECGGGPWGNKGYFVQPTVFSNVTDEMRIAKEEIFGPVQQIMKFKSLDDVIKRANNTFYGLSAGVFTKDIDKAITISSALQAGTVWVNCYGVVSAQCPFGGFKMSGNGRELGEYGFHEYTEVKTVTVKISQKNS
Potency means the concentration at half of the fitted maximal effect; tags describe the fitted curve by direction and shape.

Potency, inactive:
Cc1nc2cc(NS(=O)(=O)c3ccc(Br)cc3)ccc2n1C
Cc1ccc2c(CN3CCN(S(=O)(=O)/C=C/c4ccccc4)CC3)cc(=O)oc2c1
Cc1cccc(NC(=S)NC23CN4CN(CN(C4)C2)C3)c1C
COc1cccc(Cn2c(=O)c(C)nc3cnc(Oc4ccccc4)nc32)c1
Cc1cc(C)nc(NS(=O)(=O)c2ccc(NC(=O)c3ccco3)cc2)n1
Cc1c(Cl)cccc1NC(=O)c1cc(-c2ccccc2O)n[nH]1
CC(CCc1ccccc1)NC(=O)C1CCCN(c2nnc(-n3cccc3)s2)C1 (configuration not stated)
CCOc1ccc(C(=O)NCc2ccccn2)cc1
Cn1cnc([N+](=O)[O-])c1Nc1ccccc1O
CC1=Nc2ccccc2/C1=C\c1nc(-c2ccc(C(F)(F)F)cc2)oc1O
CCOC(=O)N1CCN(CC(=O)Nc2ccc(F)c(F)c2)CC1
COCCn1c(C(=O)N2CCCC2)cc2c1C[C@H]1CN(C(=O)c3ccccc3)[C@@](Cc3ccc(OC)cc3)(C(=O)OC)[C@@H]21

Potency, inconclusive:
CCN1CCCC1CN(Cc1cc2cc(C)cc(C)c2[nH]c1=O)C(=O)Nc1ccccc1OC (configuration not stated) 39.8 µM [inhibitor, single point]
CCN(Cc1nc2ccccc2c(=O)[nH]1)Cc1nc2cc(OC)c(OC)cc2c(=O)[nH]1 28.2 µM [inhibitor, single point]
CCCN1CCCc2cc(CN(CCCN3CCOCC3)C(=O)Nc3ccc(OCC)cc3)ccc21 25.1 µM [inhibitor, partial curve]
C=CC[n+]1c(-c2ccc(OC)cc2)csc1NNC(=O)Nc1ccccc1 28.2 µM [inhibitor, partial curve]
COc1cccc(/C=C/C(=O)OCC(=O)NCCC2=CCCCC2)c1 25.1 µM [inhibitor, partial curve]
Cc1cccc(C)c1OC(=O)CCN1C(=O)C2C3C=CC(C4CC34)C2C1=O (configuration not stated) 39.8 µM [inhibitor, single point]
S=C1NCN(Cc2ccco2)CN1c1cccc2ccccc12 31.6 µM [inhibitor, single point]
CCNC(=S)Nc1cc(C)ccn1 44.7 µM [inhibitor, single point]
c1ccc(Cc2cc(-c3ccccc3)on2)cc1 39.8 µM [inhibitor, single point]
CCc1ccc(S(=O)(=O)Nc2cccc(C3OCCCO3)c2)cc1 25.1 µM [inhibitor, single point]
COc1cc(NC(=O)c2onc(C)c2Cl)c(OC)cc1Cl 14.1 µM [inhibitor, partial curve]
O=C(O)C1CC=CCC1C(=O)Nc1cccc([N+](=O)[O-])c1 (configuration not stated) 10 µM [inhibitor, partial curve]
CCOC(=O)C1(CCCc2ccccc2)CCN(C(=O)Cc2nonc2C)CC1 15.8 µM [inhibitor, partial curve]
CC(=O)c1ccc(N2CCN(C(=O)/C=C/c3ccc4ccccc4n3)CC2)cc1 39.8 µM [inhibitor, single point]
Cc1occc1C(=O)Nc1ccc2ccccc2c1 39.8 µM [inhibitor, single point]
O=C(c1ccc(S(=O)(=O)Nc2ccc(F)cc2)cc1)N1CCN(C(=O)c2ccco2)CC1 39.8 µM [inhibitor, single point]
CCc1nnc(NC(=O)CSc2ncc(-c3ccccc3)n2CC)s1 39.8 µM [inhibitor, single point]
Cc1c(N/N=C(\C#N)C(=O)c2ccc(Cl)cc2)c(=O)n(-c2ccccc2)n1C 0.794 µM [inhibitor, single point]
CN1CCN(c2ncnc3c2[nH]c2ccc(F)cc23)CC1 28.2 µM [inhibitor, partial curve]
O=C1c2ccccc2C(Nc2ccc(-c3nc4ccccc4[nH]3)cc2)N1Cc1ccco1 (configuration not stated) 39.8 µM [inhibitor, single point]
COc1ccccc1NC(=O)Nc1ccc(F)c(F)c1 44.7 µM [inhibitor, single point]
COc1cc(-c2onc3ccc(Br)cc23)cc(OC)c1OC 28.2 µM [inhibitor, single point]
CCOc1ccc(-c2cn(-c3cccc(SC)c3)c(=O)[nH]2)cc1 39.8 µM [inhibitor, single point]
CCOC(=O)c1c(NC(=O)CSc2nnc(CN3CCOCC3)n2C)sc2c1CCCC2 44.7 µM [inhibitor, single point]
Clc1ccc(-c2nnc(-c3cccc4ccccc34)o2)cc1Cl 3.98 µM [inhibitor, partial curve]
COc1ccc(S(=O)(=O)Nc2cccc(N(C)S(C)(=O)=O)c2)cc1C 25.1 µM [inhibitor, partial curve]
CC(=O)c1cccc(NC(=O)c2cc(C(C)C)on2)c1 14.1 µM [inhibitor, partial curve]
COc1cccc(-n2cc(CNCc3cn(C)nc3-c3ccccc3F)cn2)c1 39.8 µM [inhibitor, single point]

Potency, active:
Cn1c(=O)c2[nH]c(-c3ccccc3)c(O)c2n(C)c1=O 11.2 µM
CSc1ccccc1N=CC1=C(O)CC(C)(C)CC1=O 2 µM
Cc1ccc(Cn2c(CN(C)Cc3ccccc3)nc3c2c(=O)n(C)c(=O)n3C)cc1 7.08 µM
Cc1ncoc1C(=O)N1CCCC(C(=O)c2cccc(OC(C)C)c2)C1 (configuration not stated) 25.1 µM
O=C1CCC/C(=N/Nc2ccc(Cl)cc2)C1 1.58 µM
NS(=O)(=O)c1ccc(NC(=S)NCc2ccccc2)cc1 20 µM
O=C(Cc1ccccc1)c1nnc(-c2ccccc2)o1 8.91 µM
